From the supplement of paper PMC10441789
The other results are listed elsewhere or left out. Antibody binding of pooled human sera (four to six donors per pool; dilution not stated) to peptides of the Trypanosoma cruzi antigen TSSA on microarrays. Quantile-normalised fluorescence in arbitrary units, mean of duplicate arrays; higher = more binding. No active / inactive call. The uninfected pools are read here as the healthy donors of the same country. The strongest signals lie near the top of the scale (about 60,000).

The sequences below were run on pooled sera of chronic Chagas disease patients, Argentina (assay: antibody binding signal (normalised fluorescence) (arbitrary fluorescence units); higher = stronger serum antibody binding to peptide).
Procedure: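 Microarray of 15-residue peptides over residues 30-55 of Trypanosoma cruzi TSSAII, each with 1 to 10 substitutions at naturally variable positions, probed with one serum pool per country.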
GTDNKAATGEAPSPS showed an antibody binding signal of 26200. SSTPPSGTDKKAAAG showed an antibody binding signal of 31300. For TDKKTAAGEAPSPPG, the antibody binding signal was 410. For GTEKKTAAGETPSPS, the antibody binding signal was 348. Work on KKTAAGGAPSQPGAS yielded an antibody binding signal of 191. Work on PSGKEKKPATGGTPS yielded an antibody binding signal of 8500. Work on PPSGKEKKPAAGETP yielded an antibody binding signal of 1180. In the case of KKAAAGETPSPSGAS, the antibody binding signal is reported as 168. Work on SGKDKKAATGGTPSQ yielded an antibody binding signal of 708. Work on TPPSGTEKKTAAGGA yielded an antibody binding signal of 28100. GTEKKTATGGAPSQS was tested, and the antibody binding signal was 1480. In the case of KDNKTAAGGTPSPSG, the antibody binding signal is reported as 833. Sequence KDNKAATGGAPSQSG has an antibody binding signal of 330. GTENKAATGGAPSPP was tested, and the antibody binding signal was 37700. In the case of TDKKPATGGTPSPPG, the antibody binding signal is reported as 808. Work on KTAAGGTPSPPGASS yielded an antibody binding signal of 1070. KDKKPAAGETPSQSG showed an antibody binding signal of 162. With DNKPATGGAPSQSGA the antibody binding signal was 776. With PSGKDNKPAAGGTPS the antibody binding signal was 3250. With SGTDNKTAAGETPSQ the antibody binding signal was 423. In the case of TPPSGTEKKTAAGET, the antibody binding signal is reported as 20100. TPPSGTEKKPATGET showed an antibody binding signal of 46600. KENKPATGGTPSQSG gave an antibody binding signal of 397. In the case of SGKENKAAAGEAPSP, the antibody binding signal is reported as 4290. With GKEKKTAAGETPSQS the antibody binding signal was 3100. STPPSGKEKKAAAGE was tested, and the antibody binding signal was 16000. Sequence GTEKKAATGGTPSPS has an antibody binding signal of 981. SGKENKTATGETPSQ showed an antibody binding signal of 2220. SGTENKTATGGAPSQ gave an antibody binding signal of 30700. Sequence DNKAAAGEAPSQPGA has an antibody binding signal of 7220. PPSGKDNKPATGGAP was tested, and the antibody binding signal was 1140. GKENKAATGGAPSPP was tested, and the antibody binding signal was 9790. KTAAGEAPSQPGASS gave an antibody binding signal of 6650. DNKPAAGGAPSQPGA was tested, and the antibody binding signal was 258. KDKKAAAGGAPSPPG gave an antibody binding signal of 225. In the case of KDNKPAAGGTPSQSG, the antibody binding signal is reported as 185. Work on TEKKPAAGGAPSQSG yielded an antibody binding signal of 1010. Work on SGKDNKTAAGETPSP yielded an antibody binding signal of 1060. Work on SGKENKTATGETPSP yielded an antibody binding signal of 1700. SGKDNKPAAGGTPSQ was tested, and the antibody binding signal was 704.
